In the supplement of paper PMC10338343:
± gives the standard deviation. In all, about 5,500 sequences were measured (“pre-steady-state target cleavage rate”: median about 0.1, highest 2% from about 0.64 on). This is a selection; strong and weak results do not stand in their true shares.

test system: MIWI (PIWIL1) piRISC loaded with piRNA #2 (30 nt); assay: pre-steady-state target cleavage rate (min^-1); MIWI and MILI are mouse PIWI proteins and EfPiwi is from a freshwater sponge; tags in brackets are library labels; higher = faster piRNA-guided slicing of the target; conditions: guide: piRNA #2 5'p-UUAGGUAACCCAGUAGAUCCAGAGGAAUUC; auxiliary factor: 500 nM mouse GTSF1
In short: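 The pre-steady-state cleavage rate came from a burst-and-steady-state fit to pooled data from three Cleave-'n-Seq trials, in which uncleaved targets were sequenced and normalised to depth and to weakly complementary targets. Each reaction held 0.1 nM transcribed, DNA-blocked target RNA library and 1 nM active affinity-purified piRISC carrying one synthetic guide, with or without 500 nM GTSF1 partner protein, in HEPES–potassium acetate buffer at 33 °C for 0–8 or 0–960 min. k3 was capped at 0.0001 min^-1.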

Sequence | pre-steady-state target cleavage rate
CUAUUCCUCUGGAUCUACUGGGUAUACCUAA | 0.417 ± 0.05
CUAAUCCUCUGGAUCUACUGCGUUACCUAA | 0.518 ± 0.048
CUUAAGCUCUCGAUCUACUGGGUAACCUAA | 0.106 ± 0.012
CUUAUCCUCUCGAUCUACUGCGUUACCUAA | 0.636 ± 0.048
GAUUUCCUCUGGAUCUACUGGCUUACCUAA | 0.0695 ± 0.014
CUUAAGGACUGGAUUCUACUGGGUUACCUAA | 0.0274 ± 0.024
GAAUAGCUCUGGAUCUACUGGGUUACCUAA | 0.0533 ± 0.02
CUUAUCCUCUGGAUCUACUGGCUUACGUAA | 0.0964 ± 0.024
CAAUUCCUCUGGAUCUACUCGGUAACCUAA | 0.00908 ± 0.0072
CUUAAGGACAGGAUCUACUGGGUUACCUAA | 0.107 ± 0.032
GAAUUCCUCUGGAUCUACUGGAUUACCUAA | 0.367 ± 0.039
CUUAAGGAGUGGAUCUACAGGGUUACCUAA | 0.0257 ± 0.0056
CUUAUGCUCUGGAUCUACUGGGUUAGCUAA | 0.256 ± 0.035
CUUAACCUCUGGAUCUACUGGGUUACCAA | 0.187 ± 0.031
CUUAAGGUGUGGAUGUACUGGGUUACCUAA | 0.0931 ± 0.031
CAAUUCCUGAGGAUCUACUGGGUUACCUAA | 0.437 ± 0.044
CUUAACCACUGCAUCUACUGGGUUACCUAA | 0.27 ± 0.028
CUUAAGCUCUGGAUCUACUGGCUUAGCUAA | 0.00714 ± 0.004
GAAUUGCUCUGGAUCUACUGGGUUACGUAA | 0.399 ± 0.069
CUUAAGGAGACCUAGAACUGGCGUUACCUAA | 0.00292 ± 0.0024
CUAUUCCUGUGGAUCUAGUGGGUUACCUAA | 0.184 ± 0.021
CUAUUCCUCUGGAUCUACUGGGUUGACCUAA | 0.408 ± 0.043
CUUAAGGACUGGAUCUACUGGGUUACCGUAA | 0.0402 ± 0.032
CUUUACCUCUGGUUCUACUGGGUUACCUAA | 0.514 ± 0.043

Sequence | pre-steady-state target cleavage rate
CUUAAGGACUGGAUCUAGUGGGUUUCCUAA | 0.00587 ± 0.0039
CUUAAGGUCUGGAUCUACUGGGUUACCUA | 0.177 ± 0.02
CAUUUCCUCUGGAUCUACUGGGAUACCUAA | 0.345 ± 0.028
CUAUUCCUCUGGAUCUACUGGGAUACCUUA | 0.176 ± 0.037
GAAUACCUCUGGAUCUACUGGGUUACCUUA | 0.223 ± 0.048
CUUAAGGUCAGGAUCUACUCGGUUACCUAA | 0.00885 ± 0.0061
CUUAUCCUCUGGAUCUACUGGGUUUGCUAA | 0.265 ± 0.042
CUUAUCCUGUGGAUCUACUGGGUUACGUAA | 0.524 ± 0.064
CUUAAGGUCUGCAUCUUCUGGGUUACCUAA | 0.0747 ± 0.017
CAAUUACUCUGGAUCUACUGGGUUACCUAA | 0.207 ± 0.048
CUUAAGGUCUGGAUCUACUGGGUUAACCUAA | 0.199 ± 0.036
CUUUUCCUCUGGAUCUACUGGGUUACCUCAA | 0.44 ± 0.065
GAAUUCCUCUGGAUCUGCUGGGUUACCUAA | 0.213 ± 0.044
CUAUACCUCUGGAUCUACUGGGUUUCCUAA | 0.429 ± 0.086
CAAUUCCUCUGGAACUACAGGGUUACCUAA | 0.316 ± 0.031
GAAUUCCUCUGGAGUCUACUGGGUUACCUAA | 0.311 ± 0.043
GAAUUCCUCUGGAUCUAGUGGGUAACCUAA | 0.0723 ± 0.015
CUUAAGGACACGAUCUACUGGGUUACCUAA | 0.0145 ± 0.0096
CUAUUCCUCUGGAUCUACUGGGUUAUCCUAA | 0.401 ± 0.047
CUUAACCACUGGAUCUACAGGGUUACCUAA | 0.258 ± 0.029
CUUAAGCUCUGGAUCUAGUGGGUUUCCUAA | 0.0274 ± 0.0083
CUUAAGGAGUGGAUCUACUAGGUUACCUAA | 0.0522 ± 0.011
CUUAACCUCUGGAUCUACUGGGUAACCUUA | 0.0523 ± 0.011
CUUUUCCUCAGGUUCUACUGGGUUACCUAA | 0.494 ± 0.043

Sequence | pre-steady-state target cleavage rate
CUUUUCCUCAGGAUCUACUGGGUUACCUAA | 0.578 ± 0.054
CUUUUCCUCUGGUUCUACUCGGUUACCUAA | 0.122 ± 0.011
CUUAAGGUCAGGAUGUACUGGGUUACCUAA | 0.0289 ± 0.021
CAAUUCGUCUCGAUCUACUGGGUUACCUAA | 0.556 ± 0.049
CUUAACCUCUGGAUCUUGAGGGUUACCUAA | 0.00547 ± 0.0038
CAAUUCCUCAGGAUCUACUGGGUUACCAAA | 0.534 ± 0.058
CUUUUCCUCUGGAUCUACUGGGCUACCUAA | 0.148 ± 0.02
GAAUUCCUCUGGAUCUACAGGGUUACCAAA | 0.201 ± 0.022
GAAUGCCUCUGGAUCUACUGGGUUACCUAA | 0.148 ± 0.034
CUUUUCGUCUGGAUCUACUGCGUUACCUAA | 0.306 ± 0.034
GAAUUCCUCUCGAUCUACUGGGAUACCUAA | 0.522 ± 0.049
CUUAUCCUCUGGAACAACUGGGUUACCUAA | 0.423 ± 0.036
CUUAAGGUCUGGAUCAAGUGGGUUACCUAA | 0.00395 ± 0.0036
CUUAAGGAGUGGAUCUACUGGGUUACCUAA [g2:g21:cont:t1A] | 0.185 ± 0.03
CUUAAGAUCUGGAUCUACUGGGUUACCUAA | 0.288 ± 0.043
CUUAACCUCUGGAUCUAAUGGGUUACCUAA | 0.0928 ± 0.014
CUUAAGGAGACCAUCUACUGGGUUACCUAG [g2:g18:cont:t1G] | 0.00455 ± 0.004
CUUAAGCUCUUGGAUCUACUGGGUUACCUAA | 0.147 ± 0.013
CUUUUCCUCUGUAUCUACUGGGUUACCUAA | 0.368 ± 0.045
CUUAACCUCUGGAUCUACUGCCUUACCUAA | 0.0472 ± 0.0092
CUUAAGGAGAGGAUCUACUGGGUUCCCUAA | 0.00452 ± 0.0036
GAAUUCGUCUGGAUCUACUGGGUUACCUUA | 0.311 ± 0.07
CUUAAGGAGUGGAUCUACUGGGUUUCGUAA | 0.00615 ± 0.0034
